# Results: the supplement of paper PMC8728848
# This is one part of the list.
# Experiments:
# Test in all cases: glycan array binding signal (z-score within array); higher = stronger binding
# Conditions in all cases: glycan notation: IUPAC condensed, linker removed
# [1] = target: Fuc(a1-2)[GalNAc(a1-3)]Gal(b1-3)GlcNAc(b1-3)GalNAc
# Summary of the method: (§1)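 Columns mapping to the same glycan were averaged after glycan names were converted to IUPAC-condensed notation. The data come from 3228 arrays in the Consortium for Functional Glycomics database, limited to those with an available protein sequence. Binding is reported as a within-array Z-score averaged across arrays of one protein sequence and across linkers.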
# [2] = target: Fuc(a1-2)[GalNAc(a1-3)]Gal(b1-3)GlcNAc(b1-6)GalNAc
# Summary of the method: as §1
# [3] = target: Fuc(a1-2)[GalNAc(a1-3)]Gal(b1-4)Glc
# Summary of the method: as §1
# [4] = target: Fuc(a1-2)[GalNAc(a1-3)]Gal(b1-4)GlcNAc
# Summary of the method: as §1
# [5] = target: Fuc(a1-2)[GalNAc(a1-3)]Gal(b1-4)GlcNAc(b1-2)Man
# Summary of the method: as §1
# [6] = target: Fuc(a1-2)[GalNAc(a1-3)]Gal(b1-4)GlcNAc(b1-2)Man(a1-3)[Fuc(a1-2)[GalNAc(a1-3)]Gal(b1-4)GlcNAc(b1-2)Man(a1-6)]Man(b1-4)GlcNAc(b1-4)GlcNAc
# Summary of the method: as §1
# [7] = target: Fuc(a1-2)[GalNAc(a1-3)]Gal(b1-4)GlcNAc(b1-2)Man(a1-3)[Fuc(a1-2)[GalNAc(a1-3)]Gal(b1-4)GlcNAc(b1-2)Man(a1-6)]Man(b1-4)GlcNAc(b1-4)[Fuc(a1-6)]GlcNAc
# Summary of the method: as §1
# [8] = target: Fuc(a1-2)[GalNAc(a1-3)]Gal(b1-4)GlcNAc(b1-3)Gal(b1-4)GlcNAc
# Summary of the method: as §1
# [9] = target: Fuc(a1-2)[GalNAc(a1-3)]Gal(b1-4)GlcNAc(b1-3)Gal(b1-4)GlcNAc(b1-3)Gal(b1-4)GlcNAc
# Summary of the method: as §1
# [10] = target: Fuc(a1-2)[GalNAc(a1-3)]Gal(b1-4)GlcNAc(b1-3)GalNAc
# Summary of the method: as §1
# [11] = target: Fuc(a1-2)[GalNAc(a1-3)]Gal(b1-4)GlcNAc(b1-3)[Fuc(a1-2)[GalNAc(a1-3)]Gal(b1-4)GlcNAc(b1-6)]GalNAc
# Summary of the method: as §1
# [12] = target: Fuc(a1-2)[GalNAc(a1-3)]Gal(b1-4)GlcNAc(b1-6)GalNAc
# Summary of the method: as §1
# [13] = target: Fuc(a1-2)[GalNAc(a1-3)]Gal(b1-4)[Fuc(a1-3)]GlcNAc
# Summary of the method: as §1
# [14] = target: Fuc(a1-2)[GalNAc(a1-3)]Gal(b1-4)[Fuc(a1-3)]GlcNAc(b1-3)GalNAc
# Summary of the method: as §1
# [15] = target: Fuc(a1-2)[GalNAc(a1-4)]Gal(b1-4)GlcNAc
# Summary of the method: as §1
# [16] = target: Fuc(a1-2)[GalNAc(b1-3)]Gal
# Summary of the method: as §1
# Fuc(a1-3)GlcNAc = target: Fuc(a1-3)GlcNAc
# Summary of the method: as §1
# [17] = target: Fuc(a1-3)[Gal(b1-4)]Glc6S
# Summary of the method: as §1
# [18] = target: Fuc(a1-3)[Gal(b1-4)]GlcNAc
# Summary of the method: as §1
# [19] = target: Fuc(a1-3)[Gal(b1-4)]GlcNAc(b1-2)Man
# Summary of the method: as §1
# [20] = target: Fuc(a1-3)[Gal(b1-4)]GlcNAc(b1-2)Man(a1-3)[Fuc(a1-3)[Gal(b1-4)]GlcNAc(b1-2)Man(a1-6)]Man(b1-4)GlcNAc(b1-4)GlcNAc
# Summary of the method: as §1
# [21] = target: Fuc(a1-3)[Gal(b1-4)]GlcNAc(b1-2)Man(a1-3)[Fuc(a1-3)[Gal(b1-4)]GlcNAc(b1-2)Man(a1-6)]Man(b1-4)GlcNAc(b1-4)[Fuc(a1-6)]GlcNAc
# Summary of the method: as §1
# [22] = target: Fuc(a1-3)[Gal(b1-4)]GlcNAc(b1-3)Gal(b1-3)[Fuc(a1-4)]GlcNAc
# Summary of the method: as §1
# [23] = target: Fuc(a1-3)[Gal(b1-4)]GlcNAc(b1-3)Gal(b1-4)[Fuc(a1-3)]GlcNAc
# Summary of the method: as §1
# [24] = target: Fuc(a1-3)[Gal(b1-4)]GlcNAc(b1-3)Gal(b1-4)[Fuc(a1-3)]GlcNAc(b1-3)Gal(b1-4)[Fuc(a1-3)]GlcNAc
# Summary of the method: as §1
# [25] = target: Fuc(a1-3)[Gal(b1-4)]GlcNAc(b1-3)GalNAc
# Summary of the method: as §1
# [26] = target: Fuc(a1-3)[Gal(b1-4)]GlcNAc(b1-6)GalNAc
# Summary of the method: as §1
# [27] = target: Fuc(a1-3)[Gal(b1-4)]GlcNAc(b1-6)[Gal(b1-3)GlcNAc(b1-3)]Gal(b1-4)Glc
# Summary of the method: as §1
# [28] = target: Fuc(a1-3)[Gal(b1-4)]GlcNAc6S
# Summary of the method: as §1
# [29] = target: Fuc(a1-3)[Gal3S(b1-4)]Glc
# Summary of the method: as §1
# [30] = target: Fuc(a1-3)[Gal3S(b1-4)]GlcNAc
# Summary of the method: as §1
# [31] = target: Fuc(a1-3)[Gal3S(b1-4)]GlcNAc6S
# Summary of the method: as §1
# [32] = target: Fuc(a1-3)[GalNAc(b1-4)]GlcNAc
# Summary of the method: as §1
# [33] = target: Fuc(a1-3)[GalNAc(b1-4)]GlcNAc6S
# Summary of the method: as §1
# Fuc(a1-4)GlcNAc = target: Fuc(a1-4)GlcNAc
# Summary of the method: as §1
# Fuc(b1-3)GlcNAc = target: Fuc(b1-3)GlcNAc
# Summary of the method: as §1
# Gal(a1-2)Gal = target: Gal(a1-2)Gal
# Summary of the method: as §1
binder,measurement,setting,value
"MGL (Homo sapiens), Q8IUN9 (protein) MTRTYENFQYLENKVKVQGFKNGPLPLQSLLQRLCSGPCHLLLSLGLGLLLLVIICVVGFQNSKFQRDLVTLRTDFSNFTSNTVAEIQALTSQGSSLEETIASLKAEVEGFKQERQAGVSELQEHTTQKAHLGHCPHCPSVCVPVHSEMLLRVQQLVQDLKKLTCQVATLNNNASTEGTCCPVNWVEHQDSCYWFSHSGMSWAEAEKYCQLKNAHLVVINSREEQNFVQKYLGSAYTWMGLSDPEGAWKWVDGTDYATGFQNWKPGQPDDWQGHGLGGGEDCAHFHPDGRWNDDVCQRPYHWVCEAGLGQTSQESH",glycan array binding signal (z-score),[1],-0.112
same,glycan array binding signal (z-score),[2],3.6
same,glycan array binding signal (z-score),[3],0.112
same,glycan array binding signal (z-score),[4],0.418
same,glycan array binding signal (z-score),[5],0.364
same,glycan array binding signal (z-score),[6],0.643
same,glycan array binding signal (z-score),[7],-0.116
same,glycan array binding signal (z-score),[8],0.29
same,glycan array binding signal (z-score),[9],0.111
same,glycan array binding signal (z-score),[10],-0.157
same,glycan array binding signal (z-score),[11],0.106
same,glycan array binding signal (z-score),[12],4.98
same,glycan array binding signal (z-score),[13],-0.135
same,glycan array binding signal (z-score),[14],-0.242
same,glycan array binding signal (z-score),[15],3.39
same,glycan array binding signal (z-score),[16],4.3
same,glycan array binding signal (z-score),Fuc(a1-3)GlcNAc,-0.243
same,glycan array binding signal (z-score),[17],-0.238
same,glycan array binding signal (z-score),[18],-0.232
same,glycan array binding signal (z-score),[19],-0.246
same,glycan array binding signal (z-score),[20],-0.247
same,glycan array binding signal (z-score),[21],-0.24
same,glycan array binding signal (z-score),[22],-0.248
same,glycan array binding signal (z-score),[23],-0.233
same,glycan array binding signal (z-score),[24],-0.248
same,glycan array binding signal (z-score),[25],-0.241
same,glycan array binding signal (z-score),[26],0.456
same,glycan array binding signal (z-score),[27],-0.251
same,glycan array binding signal (z-score),[28],-0.227
same,glycan array binding signal (z-score),[29],-0.241
same,glycan array binding signal (z-score),[30],-0.233
same,glycan array binding signal (z-score),[31],-0.245
same,glycan array binding signal (z-score),[32],2.54
same,glycan array binding signal (z-score),[33],1.94
same,glycan array binding signal (z-score),Fuc(a1-4)GlcNAc,-0.242
same,glycan array binding signal (z-score),Fuc(b1-3)GlcNAc,-0.242
same,glycan array binding signal (z-score),Gal(a1-2)Gal,-0.25
